In a collection of fitness landscapes (doi:10.1126/science.1257360):
The list shows a part of the results.

B1: PhoQ; a variant is named by its letters at X, in order, P23837 (parent)
chain: MKKLLRLFFPLSLRVRFLLATAAVVLVLSLAYGMVALIGYSVSFDKTTFRLLRGESNLFYTLAKWENNKLHVELPENIDKQSPTMTLIYDENGQLLWAQRDVPWLMKMIQPDWLKSNGFHEIEADVNDTSLLLSGDHSIQQQLQEVREDDDDAEMTHSVAVNVYPATSRMPKLTIVVVDTIPVELKSSYMVWSWFIYVLSANLLLVIPLLWVAAWWSLRPIEALAKEVRELEEHNRELLNPATTRELTSLVRNLNRLLKSERERYDKYRTTLTDLTHSLKTPLXXLQXXLRSLRSEKMSVSDAEPVMLEQISRISQQIGYYLHRASMRGGTLLSRELHPVAPLLDNLTSALNKVYQRKGVNISLDISPEISFVGEQNDFVEVMGNVLDNACKYCLEFVEISARQTDEHLYIVVEDDGPGIPLSKREVIFDRGQRVDTLRPGQGVGLAVAREITEQYEGKIVAGESMLGGARMEVIFGRQHSAPKDE

Variants of: B1
Experiment: enrichment ratio after two sorts for PhoP signalling (ratio (wild type AVST 3.29)); higher = more functional
Details: with PhoP (E. coli)

Variant | enrichment ratio
PMVI | ≤ 0.25
LRPM | ≤ 0.25
RNDD | ≤ 0.25
HNDQ | ≤ 0.25
DGIS | ≤ 0.25
LDNR | ≤ 0.25
LWHQ | ≤ 0.25
PERV | ≤ 0.25
TARS | ≤ 0.25
LIGY | ≤ 0.25
NDVT | ≤ 0.25
LEIQ | ≤ 0.25
HVSW | ≤ 0.25
PTMC | ≤ 0.25
PRIW | ≤ 0.25
GSRQ | ≤ 0.25
YLPS | ≤ 0.25
WLQD | ≤ 0.25
LRST | ≤ 0.25
HMHE | ≤ 0.25
FDII | ≤ 0.25
RKAA | ≤ 0.25
YTSW | ≤ 0.25
RRDE | ≤ 0.25
ECGL | ≤ 0.25

Variant | enrichment ratio
YKLS | ≤ 0.25
GSNW | ≤ 0.25
ENVD | ≤ 0.25
VWAA | ≤ 0.25
ENTW | ≤ 0.25
RAIV | ≤ 0.25
QNNG | ≤ 0.25
QTIW | ≤ 0.25
KIGW | ≤ 0.25
YDAD | ≤ 0.25
PYGN | ≤ 0.25
LWIN | ≤ 0.25
PRIQ | ≤ 0.25
VVFQ | ≤ 0.25
IAGM | ≤ 0.25
EFDY | ≤ 0.25
LDSF | ≤ 0.25
MYNL | ≤ 0.25
ATYP | ≤ 0.25
PLHA | ≤ 0.25
HDYH | ≤ 0.25
MCFC | ≤ 0.25
KPGS | ≤ 0.25
WVHP | ≤ 0.25
WWVL | ≤ 0.25

Variant | enrichment ratio
VRTN | ≤ 0.25
SFIE | ≤ 0.25
YFGR | ≤ 0.25
HKME | ≤ 0.25
IIWR | ≤ 0.25
YRTK | ≤ 0.25
FANN | ≤ 0.25
MGAH | 4.56
VRWG | ≤ 0.25
SMEK | ≤ 0.25
YWAM | ≤ 0.25
ACVR | 2
MSKD | ≤ 0.25
HVCD | ≤ 0.25
AHGQ | ≤ 0.25
FAWQ | ≤ 0.25
YTEW | ≤ 0.25
SRDD | ≤ 0.25
WTYD | ≤ 0.25
EKWS | ≤ 0.25
DSNW | ≤ 0.25
QEGS | 10.4
LDQG | ≤ 0.25
FQYY | ≤ 0.25
MMRS | ≤ 0.25

Variant | enrichment ratio
HEKS | ≤ 0.25
DNIK | ≤ 0.25
ITYW | ≤ 0.25
WITR | ≤ 0.25
WKFP | ≤ 0.25
IVMI | ≤ 0.25
IREI | ≤ 0.25
MTQL | ≤ 0.25
YHFS | ≤ 0.25
LWFT | ≤ 0.25
VSVS | ≤ 0.25
AQHR | ≤ 0.25
RRVR | ≤ 0.25
FWKQ | ≤ 0.25
MLMH | ≤ 0.25
EFDR | ≤ 0.25
WRWT | ≤ 0.25
TSQY | 13.5
NGLP | ≤ 0.25
DCHM | ≤ 0.25
DMEC | ≤ 0.25
KSVW | ≤ 0.25
PQNI | ≤ 0.25
AKIM | 4.82
RPNF | ≤ 0.25

Variant | enrichment ratio
ETTY | ≤ 0.25
DCEP | ≤ 0.25
FEGW | ≤ 0.25
GLNG | ≤ 0.25
HKGH | ≤ 0.25
VSSD | ≤ 0.25
WWMP | ≤ 0.25
AWVL | 0.631
MPVH | ≤ 0.25
PPCM | ≤ 0.25
QSRN | ≤ 0.25
DLKE | ≤ 0.25
DMSL | ≤ 0.25
ECLC | ≤ 0.25
VCDA | ≤ 0.25
QSMP | ≤ 0.25
EQMM | ≤ 0.25
FRQC | ≤ 0.25
KVAN | ≤ 0.25
VGYW | ≤ 0.25
YRVG | ≤ 0.25
FGFY | ≤ 0.25
LPQI | ≤ 0.25
YYRA | ≤ 0.25
QVVA | ≤ 0.25

Variant | enrichment ratio
AGWM | ≤ 0.25
YVCC | 0.396
FTHG | ≤ 0.25
GDEV | ≤ 0.25
PPEW | ≤ 0.25
DIFR | ≤ 0.25
ALER | ≤ 0.25
WKAG | ≤ 0.25
MENH | ≤ 0.25
AVID | ≤ 0.25
PMES | ≤ 0.25
SINF | 9.63
PKNF | ≤ 0.25
TYGD | ≤ 0.25
SKMC | 5.31
GLMQ | ≤ 0.25
IGWR | ≤ 0.25
IGMP | ≤ 0.25
PEWR | ≤ 0.25
GRAM | ≤ 0.25
LCTQ | ≤ 0.25
YGML | 6.54
LCEY | ≤ 0.25
QQWN | 13.8
IKWL | ≤ 0.25

Variant | enrichment ratio
PMGP | ≤ 0.25
TCQL | 13.2
RLGP | ≤ 0.25
FNTE | ≤ 0.25
FHEM | ≤ 0.25
TTEC | ≤ 0.25
LCKA | ≤ 0.25
SDKE | ≤ 0.25
HMRV | ≤ 0.25
QRIS | ≤ 0.25
WKTF | ≤ 0.25
ITIP | ≤ 0.25
HVAK | ≤ 0.25
RDMC | ≤ 0.25
QTTW | ≤ 0.25
AWTV | ≤ 0.25
EDHD | ≤ 0.25
MSFF | 8.62
FYKD | ≤ 0.25
LPLY | ≤ 0.25
ISWN | ≤ 0.25
GHGN | ≤ 0.25
HHLP | ≤ 0.25
IQLR | ≤ 0.25
KLTC | ≤ 0.25

Variant | enrichment ratio
FCGH | ≤ 0.25
SGAD | 0.436
AMHF | 4.42
PCDI | ≤ 0.25
KYER | ≤ 0.25
RIWL | ≤ 0.25
SLVI | 2.14
QGSQ | 10.9
VHAY | ≤ 0.25
VYND | ≤ 0.25
PRAF | ≤ 0.25
HMYK | ≤ 0.25
YHVT | ≤ 0.25
DPMA | ≤ 0.25
SSLF | 10.3
RVMI | ≤ 0.25
TYKW | ≤ 0.25
SKAY | 2.19
VKWV | ≤ 0.25
YEDT | ≤ 0.25
